# Among all 48,000 compounds or so, about 450 (0.94%) were called active. Inconclusive results (about 19%) are left out. The call rests on the fitted dose curve; in most records, active means well fitted inhibition curve with a large enough effect; inconclusive means small, poorly fitted or top-dose-only effect; inactive means no such curve, though single readings can be large or run the other way. The list shows a part of the results.
# Assay: Primary qHTS for Identification of Small Molecule Inhibitors of Huntingtin Promoter Activity; further: nearly all actives have a fitted effect of over 50% in size
# Settings: HEK293 HTT promoter firefly luciferase reporter (activity 0% = vehicle and -100% = no light), 24 h; series mostly up to 57.5 µM; activity change, negative = inhibition: at the top concentration
# Method in brief: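 Luminescence was read after Dual-Glo reagent and a 10 min room-temperature incubation. Values were normalized to vehicle (0% activity) and zero RLU (-100% activity). Reporter HEK293 cells had been exposed to compounds (up to 57.5 uM final) for 24 h.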
# Potency means the concentration at half of the fitted maximal effect.
SMILES,"activity change, negative = inhibition",Potency
COc1ccc(-c2c3c(nc4sc(C(=O)Nc5ccc(Cl)cc5)c(N)c24)CC(C)(C)CC3=O)cc1,inactive: -18.8%,–
COCCc1nn2c(=O)cc(COC(=O)c3cccs3)nc2s1,inactive: 47.3%,–
Cn1nnc2c(N3CCCCC3)ncnc21,inactive: 10%,–
CCn1ccc2cc(S(=O)(=O)N3CCC(C(=O)NCCc4ccc(SC)cc4)CC3)ccc21,inactive: 0%,–
CCc1cccc(C)c1NC(=O)CN1C(=O)c2c(c3ccccc3n2C)C1c1ccc(OC)cc1 (stereo unspecified),inactive: -27.1%,–
CCCCN(C)C(=O)CN1C(=O)CCn2nc(-c3cn(C)c4ccccc34)cc21,inactive: -13.6%,–
COc1cccc(CCNC(=O)c2c(O)nc3cc(C)ccn3c2=O)c1,inactive: -0.777%,–
CCc1ccccc1NC(=O)C(NS(=O)(=O)c1ccc2c(c1)CCC(=O)N2)c1ccccc1 (stereo unspecified),inactive: -10%,–
COCCCNC(=O)Nc1cc(C(=O)NCc2ccc(OC)cc2)ccc1N1CCCC1,inactive: 2.61%,–
COC(=O)c1ccccc1NC(=O)c1ccc2c(c1)CCN2S(=O)(=O)c1ccc(C)cc1,inactive: -7.52%,–
O=c1cc(-c2ccccc2)n2c(SCc3ccc([N+](=O)[O-])cc3)nnc2[nH]1,inactive: 8.5%,–
CC1=C(C(N)=O)C(c2cccc(F)c2)n2nc(SCc3ccccc3)nc2N1 (stereo unspecified),inactive: -3.16%,–
O=C(O)Cn1nc(N2CCN(c3ccc(F)cc3)CC2)ccc1=O,inactive: -2.41%,–
COc1cc(OC)c(NC(=O)C2=C(C)C(=O)OC23CCCCC3)cc1Cl,inactive: -16.3%,–
CCc1ccc(C(=O)c2cnc3ccc(C)cc3c2S(=O)(=O)c2ccc(OC)cc2)cc1,inactive: -43.5%,–
COc1ccc2cc(CNc3ccc(C)cc3)c(=O)n(CC(=O)Nc3ccc(OC)c(Cl)c3)c2c1,inactive: -28%,–
O=C(CCCn1c(=O)c2sccc2n(Cc2ccc(F)cc2Cl)c1=O)NCc1ccc2c(c1)OCO2,inactive: -0.658%,–
NC(=Nc1ccccc1)Nc1ccccc1,inactive,–
Cc1c(C(=O)N2CCCC2)oc2c1-c1nn(CC(=O)NCc3cccc(F)c3)cc1CC2,inactive: -20.1%,–
Cc1ccccc1Nc1ncnc2c1c(-c1ccccc1)cn2-c1ccc(F)cc1,inactive: -24%,–
O=C(CCc1nc2cccnc2n1Cc1ccccc1)NCc1cccc(Cl)c1,inactive: -16.9%,–
Cc1ncc(COC(=O)C(C)C)c2cc(C(=O)Nc3ccccc3C(F)(F)F)c(=O)oc12,inactive: -2.6%,–
CCN(CC)CCCNC(=O)CCc1c(C)n(CC)c2cc(-c3ccccc3OC)nn2c1=O,inactive: -9.05%,–
CCCCn1c(CNC(=O)C23CC4CC(CC(C4)C2)C3)nnc1SCC(=O)Nc1ccccc1,inactive: 0.682%,–

SMILES,"activity change, negative = inhibition",Potency
COC(=O)NNC(=O)C1CCC(C)CC1 (stereo unspecified),inactive: -17.9%,–
Cc1cccc(N2C(=O)CS(=O)(=O)C23C(=O)N(C)c2ccccc23)c1 (stereo unspecified),inactive: -16.6%,–
CCc1nc2ccc(C(=O)NCCc3ccc(OC)c(OC)c3)cc2nc1CC,inactive: 2.52%,–
O=C(c1ccco1)N1CCN(c2nc3ccc(Cl)cc3s2)CC1,inactive: -23%,–
CCn1ccc2cc(S(=O)(=O)N3CCC(C(=O)NCCOC)CC3)ccc21,inactive: -3.33%,–
CCN1CCN(CCCNC(=O)c2cc3c(s2)-c2c(C)cccc2OC3)CC1,inactive: -21.4%,–
O=S(=O)(c1ccc(-c2cc(C(F)(F)F)on2)s1)N1CCN(c2cccc(Cl)c2)CC1,inactive: -3.17%,–
CCCOC(=O)c1ccc(N)cc1,inactive: 5.95%,–
Cc1nn2c(C(F)(F)F)cc(-c3ccc(OC(C)C)cc3)nc2c1C#N,inactive: -7.54%,–
Cc1ccccc1OCC(=O)Nc1ccccc1C(=O)OCc1cc(=O)n2c(C)csc2n1,–,active: 2.24 µM
Cc1ccc2c(c1)c1c(n2CCc2ccc(C)nc2)CCN(C)C1,inactive: 6.44%,–
COCCn1c(C)cc(O)c(C(c2ccccc2OC)N2CCCCC2)c1=O (stereo unspecified),inactive: -16.8%,–
COc1ccc(C(CC(=O)Nc2ccc(OC)c(OC)c2)N2Cc3ccccc3C2=O)cc1 (stereo unspecified),inactive: -18.5%,–
O=C(Nc1cccc(C2=NCCN2)c1)Nc1cccc(C2=NCCN2)c1,inactive: -3.17% [at 25.2 µM],–
COc1cccc(CNC(=O)c2cc3c(=O)n(C)c4ccccc4c3n2C)c1,inactive: 3.22%,–
CC(=O)OCC(=O)[C@@]1(O)CC[C@H]2[C@@H]3CCC4=CC(=O)C=C[C@]4(C)[C@H]3[C@@H](O)C[C@@]21C,inactive: -11.8%,–
Cc1ccc2c(CC(=O)Nc3c(C(=O)Nc4cccc(Cl)c4)oc4ccccc34)coc2c1C,inactive: -3.75%,–
Cc1ccccc1Cn1c(Oc2ccccc2F)nc2c1c(=O)n(C)c(=O)n2C,inactive: 8.46%,–
Cc1ccc(NC(=O)Cn2c(=O)c(C(F)(F)F)nc3ccccc32)c(C)c1,inactive: 3.76%,–
CCCCN(CC)CCNC(=O)Cn1c(=O)c2cccn2c2cccnc21,inactive: -8.4%,–
Cc1ccc(Nc2cc(C(=O)NC3CCCC3)c3ccccc3n2)c(C)c1,inactive: -6.86%,–
CN(Cc1ccccc1)C(=O)Cn1ncc2c3ccccc3n(Cc3cccc(Cl)c3)c2c1=O,inactive: -27%,–
Cc1ccc(Cl)cc1Nc1sc(C(=O)c2ccccc2)c(N)c1S(=O)(=O)c1ccccc1,inactive: 5.35%,–
CCc1cnc2c(c1SCC(=O)NCc1ccccc1)c(=O)n(C)c(=O)n2C,inactive: -10.7%,–

SMILES,"activity change, negative = inhibition",Potency
Cc1cc(C)c2oc(-c3cccc(NC(=O)c4cc5ccccc5o4)c3)nc2c1,inactive: -10.4% [at 11.5 µM],–
COc1cc(CCC(=O)NCc2ccc3c(c2)CCN3C(=O)c2cccc(C)c2)cc(OC)c1OC,inactive: -23.3%,–
CC(C)n1c(SCC(=O)c2ccc(F)cc2)nc2c(sc3ccccc32)c1=O,inactive: -24.1%,–
COc1ccccc1OCCCn1c(C2CC(=O)N(c3ccc(F)cc3)C2)nc2ccccc21 (stereo unspecified),inactive: -26.7%,–
Cc1cccc2nc(Cn3c(=O)n(-c4ccccc4)c(=O)c4c5c(sc43)CCC5)cc(=O)n12,inactive: 9.86%,–
CCOc1ccccc1NC(=O)CSc1nnc(CC)c(CC)n1,inactive: -21.6%,–
CCCCC(CC)CNC(=O)c1ccc(Cn2c(=O)[nH]c3cc(OC)c(OC)cc3c2=O)cc1 (stereo unspecified),inactive: -1.17%,–
CCN1c2ccccc2-c2nc(SCC(=O)Nc3cc(OC)cc(OC)c3)ncc2S1(=O)=O,inactive: -15.8%,–
CCCN(C(=O)c1c(C)oc2ncn(CC(C)C)c(=O)c12)c1ccccc1C,inactive: -1.41%,–
CCCOc1ccc(C(=O)Nc2cc(-c3nc4ccccc4[nH]3)ccc2C)cc1,inactive: -18.8%,–
COc1cccc(CN2CCCN(Cc3ccc(F)cc3)S2(=O)=O)c1,inactive: -12.6%,–
Cc1ccccc1OCC(=O)Nc1nnc(SCc2cc(=O)n3cccc(C)c3n2)s1,inactive: 1.61%,–
COc1cccc(CNC(=O)c2cc3cc(C)ccc3n2C)c1,inactive: -19.1%,–
Cc1c(NC(=O)C(C)(C)C)cccc1-c1nc2ccccc2s1,inactive: 23.3%,–
Cc1ccc(-n2nc(C(=O)N3CCN(c4cc(C)ccc4C)CC3)c3c4ccccc4n(C)c3c2=O)cc1,inactive: -7.53%,–
CCOc1ccccc1NC(=O)Cn1c(=O)n(-c2ccc(Cl)cc2)c(=O)c2oc3ccccc3c21,inactive: -8.52%,–
CCN(CC)c1ccc(NC(=O)Cn2cc3c(n2)CCCC3)c(C)c1,inactive: -16%,–
Cn1c(=O)n(C)c2cc(N3CCCCC3)c(NC(=O)Nc3ccc(Br)cc3)cc21,inactive: -19.8%,–
CCc1ccc(NC(=O)CSc2nc3c([nH]c4ccccc43)c(=O)n2C)cc1,inactive: -6.88%,–
Cc1ccc(-n2c(=O)c3ccc(C(=O)NCc4ccccc4Cl)cc3n(Cc3cccc(F)c3)c2=O)cc1,inactive: -16.4%,–
COc1ccc(N2CCN(C(CNC(=O)c3c(F)cccc3F)c3ccc4c(c3)OCO4)CC2)cc1 (stereo unspecified),inactive: -19.5%,–
CCOC(=O)c1cc2c(=O)n3ccccc3nc2n(CC2CCCO2)c1=NC(=O)c1ccccc1OCC (stereo unspecified),inactive: -11.4%,–
CCOc1ccc(-n2cc(-c3ccccc3)c3c(NCc4ccccc4)ncnc32)cc1,inactive: -29.7%,–
COc1ccc(CNC(=O)C2CCN(S(=O)(=O)N3CCC(C)CC3)CC2)c(OC)c1,inactive: -23.9%,–

SMILES,"activity change, negative = inhibition",Potency
Cc1ccc(NS(=O)(=O)c2cn(C)c(C)n2)c(Br)c1,inactive: -2.04%,–
COc1cc(CN(C(=O)c2ccc(C)cc2)C2CCS(=O)(=O)C2)cc(OC)c1OC (stereo unspecified),inactive: -9.39%,–
COc1cccc(NC(=O)C2CC(=O)N(c3ccc(Br)cc3)C2)c1 (stereo unspecified),inactive: -9.15%,–
COc1ccc(NC(=O)CCn2cnnn2)cc1,inactive: -3.37%,–
N#C/C(=C\c1cccc(F)c1)c1nc(-c2cc3ccccc3oc2=O)cs1,inactive: 5.62%,–
Cc1ccc2c(c1)c1c(c(=O)n(Cc3ccccc3)c(=O)n1Cc1cccc(F)c1)n2C,inactive: -8.3%,–
Cc1ccc(S(=O)(=O)c2cn(CC(=O)Nc3ccc4c(c3)OCO4)c3ccc(C)cc3c2=O)cc1,inactive: -9.84%,–
COc1ccc(-c2nc3ccccc3o2)cc1NC(=O)c1cc([N+](=O)[O-])ccc1N1CCOCC1,inactive: 22.5%,–
CCC1CN(CC(=O)NCc2cccc(Br)c2)c2ccccc2S1 (stereo unspecified),inactive: -29.1%,–
Cc1c(Nc2ncccc2C(=O)O)cccc1C(F)(F)F,inactive: 9.2%,–
CCc1nnc(SCC(=O)Nc2ccc(OC)c(OC)c2)c2cc3occc3n12,inactive: 8.73%,–
CCc1ccc(N2CC(C)Cn3c2nc2c3c(=O)n(CC(=O)O)c(=O)n2C)cc1 (stereo unspecified),inactive: 0.195%,–
COC(=O)Cc1c(C)nc2nc(NCc3ccc(Br)cc3)[nH]n2c1=O,inactive: -19.9%,–
O=C(Nc1noc2ccccc12)c1ccc(F)cc1,inactive: 60%,–
CCOC(=O)c1ccc(NC(=O)C2(S(=O)(=O)c3ccc(Cl)cc3)CC2)cc1,inactive: -1.37%,–
COc1ccc(CNC(=O)c2cc(=O)c3cc(C)ccc3o2)cc1,inactive: -17.9% [at 11.5 µM],–
C=Cc1ccc(COc2ccc3oc(-c4ccccc4)c(C(=O)OCC)c3c2)cc1,inactive: -2.52%,–
Cc1cccc(C)c1NS(=O)(=O)c1ccc(NS(=O)(=O)c2ccc3c(c2)OCCO3)cc1,inactive: -23%,–
Cc1ccccc1NC(=O)CCC(=O)N1CC(C)Sc2ccccc21 (stereo unspecified),inactive: -22.8%,–
COc1cccc(CNC(=O)CSC2=Nc3ccccc3C3=NC(C(C)C)C(=O)N23)c1 (stereo unspecified),inactive: -17%,–
CCOC(=O)COc1ccc([N+](=O)[O-])cc1-c1ccnc2cc(-c3ccc(C)cc3)nn12,inactive: -7.61%,–
COc1ccc(C(=O)N(c2ccc(OC)cc2)S(=O)(=O)c2ccc3c(c2)n(C)c(=O)n3C)cc1,inactive: 3.48%,–
COc1ccccc1C(=O)Nc1cccc(C(=O)OCc2cc(=O)n3nc(C)sc3n2)c1,inactive: -5.93%,–
O=C(c1cc2ccc3cccnc3c2[nH]1)N1CCN(c2ccc(Cl)cc2)CC1,inactive: 6.56%,–
